Measurements as given in ChEMBL document CHEMBL5050857, “Mettl3 modulators” (2021).

Tests used:
[1] = tested on: MOLM-13; assay: Antiproliferative activity against human MOLM-13 cells after 48 hrs by Cell Titer-Glo assay; format: functional, cell-based; conditions: MOLM-13, 48 h
[2] = Inhibition of METTL16 (unknown origin) using CGAUACAGAGAAGAUUAGCAUACGCAAAUUCGUGAAGCG-biotin and SAM as substrates preincubated for 5 mins followed by substrate addition incubated for 220 mins by TopCount scintillation counting method; set-up: species or system Homo sapiens
[3] = target: T1, N6-adenosine-methyltransferase catalytic subunit (Homo sapiens, UniProt Q86U44); assay: Inhibition of METTL3 (unknown origin) using UCUGGACUAAA-biotin and 3H-SAM as substrates preincubated for 5 mins followed by substrate addition incubated for 30 mins by TopCount scintillation counting method
[4] = target: T1, N6-adenosine-methyltransferase catalytic subunit; assay: Inhibition of METTL3-mediated m6A methylation in human MOLM-13 cells assessed as reduction in mRNA level measured after 24 hrs by LC-MS/MS analysis; format: cell-based
[5] = tested on: MOLM-13; assay: Antiproliferative activity against human MOLM-13 cells after 96 hrs by Cell Titer-Glo assay; format: functional, cell-based; conditions: MOLM-13, 96 h

T1 sequence (Q86U44 whole entry): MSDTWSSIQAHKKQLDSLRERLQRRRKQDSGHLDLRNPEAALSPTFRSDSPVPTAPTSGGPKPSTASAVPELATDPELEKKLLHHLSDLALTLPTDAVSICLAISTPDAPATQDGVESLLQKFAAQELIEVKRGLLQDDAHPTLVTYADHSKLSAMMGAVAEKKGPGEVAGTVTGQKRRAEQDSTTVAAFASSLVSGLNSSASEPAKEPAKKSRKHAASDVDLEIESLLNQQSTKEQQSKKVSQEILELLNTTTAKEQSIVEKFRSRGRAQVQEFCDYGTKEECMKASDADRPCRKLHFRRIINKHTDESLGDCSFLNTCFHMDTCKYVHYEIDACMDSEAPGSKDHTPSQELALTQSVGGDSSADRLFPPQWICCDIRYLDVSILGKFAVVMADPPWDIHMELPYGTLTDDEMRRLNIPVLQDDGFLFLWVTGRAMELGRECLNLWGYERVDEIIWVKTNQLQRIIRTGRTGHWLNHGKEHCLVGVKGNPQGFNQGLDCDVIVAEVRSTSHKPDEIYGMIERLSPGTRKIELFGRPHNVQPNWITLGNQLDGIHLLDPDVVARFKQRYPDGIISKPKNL

Compound	IC50 [1] [nM]	IC50 [2] [nM]	IC50 [3] [nM]	IC50 [4] [nM]	IC50 [5] [nM]
CNc1ccc2ccc(OC[C@H]3O[C@@H](n4cc(-c5cn(C)cn5)c5c(N)ncnc54)[C@@H](F)[C@@H]3O)cc2n1	1000	≥ 1000	< 10	1000	
Cn1ccc(-c2cn([C@@H]3O[C@H](COc4ccc5ccc(N6CC(O)C6)nc5c4)[C@@H](O)[C@@H]3F)c3ncnc(N)c23)n1	1000		< 10	1000	1000
CNc1ccc2ccc(OC[C@H]3O[C@@H](n4cc([C@H]5CCCO5)c5c(N)ncnc54)[C@@H](F)[C@@H]3O)cc2n1	1000		< 10	1000	< 1000
CNc1ccc2ccc(OC[C@H]3O[C@@H](n4cc(Cl)c5c(N)ncnc54)C[C@@H]3O)cc2n1	≥ 10000		< 10	1000	1000
CNc1ccc2ccc(OC[C@H]3O[C@@H](n4cc(C5CCCC5)c5c(N)ncnc54)[C@H](O)[C@@H]3O)cc2n1	1000	≥ 1000	< 10	< 1000	< 1000
CNc1ccc2ccc(OC[C@H]3O[C@@H](n4cc(-c5ccn(C)n5)c5c(N)ncnc54)[C@@H](F)[C@@H]3O)cc2n1	< 1000	≥ 1000	< 10	< 1000	< 1000
CNc1ccc2ccc(OC[C@H]3O[C@@H](n4cc(-c5cc[nH]n5)c5c(N)ncnc54)[C@@H](F)[C@@H]3O)cc2n1	< 1000		< 10	1000	< 1000
CNc1ccc2ccc(CC[C@H]3C[C@@H](n4cc(C5CCCC5)c5c(N)ncnc54)[C@H](O)[C@@H]3O)cc2n1	1000		< 10	1000	< 1000
CNc1ccc2ccc(OC[C@H]3O[C@@H](n4cc(Br)c5c(N)ncnc54)[C@@H](F)[C@@H]3O)cc2n1	1000		< 10	1000	< 1000
CNc1ccc2ccc(CC[C@H]3C[C@@H](n4cc(CO)c5c(N)ncnc54)[C@H](O)[C@@H]3O)cc2n1		≥ 1000	< 10	1000	
CN(C)c1ccc2ccc(CC[C@H]3C[C@@H](n4ccc5c(N)ncnc54)[C@H](O)[C@@H]3O)cc2n1	≥ 10000		≤ 100	≥ 10000	1000
CNc1ccc2ccc(OC[C@H]3O[C@@H](n4cc(C5CCCC5)c5c(N)ncnc54)[C@@H](F)[C@@H]3O)cc2n1	1000	≥ 1000	< 10	1000	1000
CN(C)c1ccc2ccc(OC[C@H]3O[C@@H](n4ccc5c(N)ncnc54)[C@H](O)[C@@H]3O)cc2n1	≥ 10000		≤ 100	≥ 10000	1000
CCNc1ccc2ccc(CC[C@H]3C[C@@H](n4cc(C5CCCC5)c5c(N)ncnc54)[C@H](O)[C@@H]3O)cc2n1	1000		< 10	1000	1000
CCNc1ccc2ccc(OC[C@H]3O[C@@H](n4cc(Cl)c5c(N)ncnc54)[C@@H](F)[C@@H]3O)cc2n1	1000		< 10	1000	1000
CNc1ccc2ccc(OC[C@H]3O[C@@H](n4cc(Cl)c5c(N)ncnc54)[C@@H](F)[C@@H]3O)cc2n1	1000		< 10	1000	1000
Cn1ccc(-c2cn([C@H]3C[C@H](O)[C@@H](COc4ccc5ccc(NC6CC6)nc5c4)O3)c3ncnc(N)c23)n1	1000		< 10	1000	< 1000
CNc1ccc2ccc(CC[C@H]3C[C@@H](n4cc(C5CCCCC5)c5c(N)ncnc54)[C@H](O)[C@@H]3O)cc2n1	1000		< 10	1000	< 1000
CNc1ccc2ccc(OC[C@H]3O[C@@H](n4cc(Cl)c5c(N)ncnc54)[C@H](O)[C@@H]3O)cc2n1	1000	≥ 1000	< 10	1000	< 1000
CNc1ccc2ccc(OC[C@H]3O[C@@H](n4cc(Br)c5c(N)ncnc54)[C@H](O)[C@@H]3O)cc2n1	1000	≥ 1000	< 10	1000	< 1000
CNc1ccc2ccc(OC[C@H]3O[C@@H](n4cc(CC5CCCC5)c5c(N)ncnc54)[C@H](O)[C@@H]3O)cc2n1	≥ 10000	≥ 1000	< 10	1000	
CNc1ccc2ccc(CC[C@H]3C[C@@H](n4cc(C)c5c(N)ncnc54)[C@H](O)[C@@H]3O)cc2n1	1000		< 10	1000	< 1000
CN(C)c1ccc2ccc(OC[C@H]3O[C@@H](n4cc(C5CCCC5)c5c(N)ncnc54)[C@H](O)[C@@H]3O)cc2n1	1000		< 10	1000	1000
Nc1ncnc2c1c([C@H]1CCCO1)cn2[C@@H]1O[C@H](COc2ccc3ccc(N4CCC4)nc3c2)[C@@H](O)[C@@H]1F	1000		< 10	< 1000	1000
CNc1ccc2ccc(OC[C@H]3O[C@@H](n4cc(CC5CC5)c5c(N)ncnc54)[C@@H](F)[C@@H]3O)cc2n1	1000	≥ 1000	< 10	1000	< 1000
CNc1ccc2ccc(CC[C@H]3O[C@@H](n4cc(C5CCCC5)c5c(N)ncnc54)[C@H](O)[C@@H]3O)cc2n1	1000	≥ 1000	< 10	1000	< 1000
CNc1ccc2ccc(OC[C@H]3O[C@@H](n4cc(C5CC5)c5c(N)ncnc54)[C@@H](F)[C@@H]3O)cc2n1	< 1000	≥ 1000	< 10	1000	< 1000
Nc1ncnc2c1ccn2[C@@H]1C[C@H](CCc2ccccn2)[C@@H](O)[C@H]1O	≥ 10000		≥ 1000	≥ 10000	≥ 10000
CCNc1ccc2ccc(OC[C@H]3O[C@@H](n4cc(-c5cn(C)cn5)c5c(N)ncnc54)[C@@H](F)[C@@H]3O)cc2n1	1000	≥ 1000	< 10	1000	< 1000
CNc1ccc2ccc(OC[C@H]3O[C@@H](n4cc(-c5ncco5)c5c(N)ncnc54)[C@@H](F)[C@@H]3O)cc2n1	< 1000		< 10	< 1000	< 1000
